{
  "source": "PubChem BioAssay AID1460",
  "about": "(National Center for Advancing Translational Sciences (NCATS), 2008)",
  "note": "Values joined by “and” are separate entries in the source; they are usually repeats but may differ in a detail not shown here. Identical values can stand only once. The whole screen tested about 270,000 compounds, of which about 5,800 (2.1%) were called active. Inconclusive means that the source gave no clear call. Such entries were picked first, then a sample of the others. Calls follow the shape of the dose curve; as a rule, active = well fitted inhibition curve with a large enough effect; inconclusive = small, poorly fitted or top-dose-only effect; inactive = flat fitted curve, though single readings scatter. Potencies beside an inconclusive call are fits to weak or partial responses and may not hold up. Potency is read from the fitted curve at half-maximal effect; tags tell the direction and shape of the fitted curve.",
  "data": [
    {"target": "Microtubule-associated protein tau (Homo sapiens) (UniProt P10636)", "sequence (P10636 whole entry, looked up, the tested form may be a part)": "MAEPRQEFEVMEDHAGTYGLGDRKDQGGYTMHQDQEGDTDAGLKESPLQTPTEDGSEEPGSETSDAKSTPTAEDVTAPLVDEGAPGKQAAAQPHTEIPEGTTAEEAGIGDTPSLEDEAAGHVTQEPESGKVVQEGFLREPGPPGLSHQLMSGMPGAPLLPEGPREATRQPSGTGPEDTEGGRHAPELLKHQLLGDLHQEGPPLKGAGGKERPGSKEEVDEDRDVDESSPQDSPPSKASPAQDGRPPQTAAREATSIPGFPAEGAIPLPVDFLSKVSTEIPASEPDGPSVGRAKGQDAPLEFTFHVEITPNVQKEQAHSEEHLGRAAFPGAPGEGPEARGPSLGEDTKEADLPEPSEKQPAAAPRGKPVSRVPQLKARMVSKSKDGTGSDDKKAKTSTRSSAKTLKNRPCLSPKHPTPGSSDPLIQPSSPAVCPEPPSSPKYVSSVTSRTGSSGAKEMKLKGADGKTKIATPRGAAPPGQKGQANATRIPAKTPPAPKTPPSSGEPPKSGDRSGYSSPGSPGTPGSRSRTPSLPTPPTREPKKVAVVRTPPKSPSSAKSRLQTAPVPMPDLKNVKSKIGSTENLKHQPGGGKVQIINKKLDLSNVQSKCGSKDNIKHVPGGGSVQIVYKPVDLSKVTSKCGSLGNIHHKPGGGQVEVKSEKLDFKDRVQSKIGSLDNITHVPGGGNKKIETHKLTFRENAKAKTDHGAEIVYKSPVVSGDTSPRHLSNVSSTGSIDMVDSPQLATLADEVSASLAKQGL", "assay": "qHTS for Inhibitors of Tau Fibril Formation, Thioflavin T Binding; also: nearly all actives have a fitted effect of over 55% in size", "details": "recombinant tau K18 P301L (four-repeat tau fragment), heparin-induced fibrillization, ThT fluorescence; series mostly up to 57.4 µM", "how_it_was_run": "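Heparin-induced fibrillization of the P301L-mutant K18 repeat-domain fragment of human tau was followed by ThT binding in quantitative high-throughput format.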", "values": [
      {"compound": "COc1ccc(-c2cn3cc([N+](=O)[O-])ccc3n2)cc1OC", "Potency": "active: 4.47 µM"},
      {"compound": "O=S(=O)(Nc1ccc(O)c(Sc2nc3ccccc3s2)c1)c1ccc(F)cc1", "Potency": "inactive"},
      {"compound": "CCOC(=O)N1CCN(C(=O)CSc2nnc(C3COc4ccccc4O3)o2)CC1", "note": "(configuration not stated)", "Potency": "inconclusive: 2.82 µM [inhibitor, partial curve]"},
      {"compound": "C=CCn1c(-c2cc3c(s2)CCC(CC)C3)n[nH]c1=S", "note": "(configuration not stated)", "Potency": "inconclusive: 15.8 µM [inhibitor, partial curve]"},
      {"compound": "O=Cc1ccc(N2CCCCCC2)cc1", "Potency": "inactive"},
      {"compound": "COc1ccc(/C=C2\\N=C3CCCCCN3C2=O)cc1", "Potency": "inactive"},
      {"compound": "Cc1cc(NCCCn2ccnc2)n2nc(C)c(-c3ccc(Cl)cc3)c2n1", "Potency": "inconclusive: 15.8 µM [inhibitor, partial curve, poor fit]"},
      {"compound": "CCOC(=O)C(NC(=O)c1ccccc1Cl)(Nc1ccc(C)c(C)c1)C(F)(F)F", "note": "(configuration not stated)", "Potency": "inconclusive: 35.5 µM [inhibitor, single point]"},
      {"compound": "N#C[C@@H]1[C@@H]2C(=O)N(c3ccc4c(c3)OCCO4)C(=O)[C@@H]2C2c3ccccc3C=CN21", "note": "(some centres not stated)", "Potency": "inconclusive: 20 µM [inhibitor, partial curve]"},
      {"compound": "COc1ccc(-c2csc(/C(C#N)=C(\\O)CSc3nccn3C)n2)cc1OC", "Potency": "active: 17.8 µM"},
      {"compound": "Cc1cccc(NC(=O)c2ccc3snnc3c2)c1C", "Potency": "inconclusive: 25.1 µM [inhibitor, single point]"},
      {"compound": "N=c1n(CC(=O)c2ccc([N+](=O)[O-])cc2)c2ccccc2n1Cc1ccccc1", "Potency": "inconclusive: 2.51 µM [inhibitor, partial curve]"},
      {"compound": "COc1ccc(C2C(C#N)=C(N)N(c3cccnc3)C3=C2C(=O)CCC3)cc1Cn1cc([N+](=O)[O-])cn1", "note": "(configuration not stated)", "Potency": "inconclusive: 25.1 µM [inhibitor, partial curve]"},
      {"compound": "CCc1c(C)sc(NC(=O)c2ccco2)c1C(=O)N1CCCCC1", "Potency": "inconclusive: 44.7 µM [inhibitor, partial curve]"},
      {"compound": "O=[N+]([O-])c1ccc(N2CCCCC2)cc1N1CCOCC1", "Potency": "inconclusive: 25.1 µM [inhibitor, single point]"},
      {"compound": "O=S(=O)(Cc1ccccc1)c1nnnn1-c1ccccc1", "Potency": "inconclusive: 15.8 µM [inhibitor, partial curve]"},
      {"compound": "Cc1ccc2oc(-c3ccc(C)c(NC(=O)c4ccc(N5CCC(C)CC5)c([N+](=O)[O-])c4)c3)nc2c1", "Potency": "inconclusive: 4.47 µM [inhibitor, full curve]"},
      {"compound": "Cc1nn(-c2ccccc2)c2c1C(c1cccs1)C(C#N)=C(N)O2", "note": "(configuration not stated)", "Potency": "inconclusive: 28.2 µM [inhibitor, partial curve]"},
      {"compound": "CCn1c2ccccc2c2c3ncc4cccn4c3ccc21", "Potency": "inconclusive: 3.98 µM [inhibitor, full curve]"},
      {"compound": "CCCn1c(CNC(=O)c2ccc(F)cc2)nc2ccccc21", "Potency": "inactive"},
      {"compound": "O=[N+]([O-])c1ccc(SCCc2ccncc2)cc1", "Potency": "inconclusive: 39.8 µM [inhibitor, partial curve] and inconclusive: 5.62 µM [inhibitor, partial curve, poor fit]"},
      {"compound": "COc1ccc(C2=NCCc3cc(OC)c(OC)cc32)cc1OC", "Potency": "inactive"},
      {"compound": "COC(=O)c1ccc(-c2nc(-c3cccs3)no2)cc1", "Potency": "inconclusive: 2.51 µM [inhibitor, partial curve]"},
      {"compound": "O=C(N/N=C/c1ccc([N+](=O)[O-])cc1)c1cccs1", "Potency": "inconclusive: 7.08 µM [inhibitor, partial curve]"},
      {"compound": "CCCCn1nnnc1SCC(=O)Nc1sc2c(c1C#N)CCCC2", "Potency": "inconclusive: 17.8 µM [inhibitor, single point]"},
      {"compound": "COC(=O)Nc1ccc(SCC(=O)c2ccccc2)cc1", "Potency": "inconclusive: 35.5 µM [inhibitor, single point]"},
      {"compound": "Cc1ccc(S(=O)(=O)N(Cc2nc(-c3cccc(C)c3)no2)C2CCCCC2)cc1", "Potency": "inconclusive: 0.0631 µM [inhibitor, full curve, poor fit]"},
      {"compound": "Cc1cc(/C=N/Nc2ccc([N+](=O)[O-])cn2)c(C)n1-c1cccc(C(=O)O)c1", "Potency": "active: 2.82 µM"},
      {"compound": "CCCN(Cc1cc2ccc(C)cc2[nH]c1=O)C(=O)c1ccccn1", "Potency": "inactive"},
      {"compound": "O=C(COCc1cc(-c2ccc3c(c2)OCO3)on1)N1CCN(c2cccc(Cl)c2)CC1", "Potency": "inconclusive: 0.199 µM [inhibitor, full curve]"},
      {"compound": "COC(=O)c1c(SC)nc2ccccc2c1OCc1ccc(Cl)cc1", "Potency": "inconclusive: 15.8 µM [inhibitor, partial curve]"},
      {"compound": "Cn1c(SCC(=O)N2CCN(C(=O)c3ccco3)CC2)nnc1-c1ccc(NS(C)(=O)=O)cc1", "Potency": "inconclusive: 8.91 µM [inhibitor, partial curve]"},
      {"compound": "Cc1ccc2nc(Cl)c3nnnn3c2c1", "Potency": "inconclusive: 7.08 µM [inhibitor, single point]"},
      {"compound": "COc1cc(CNC(=O)c2ccc3nc(CCc4ccccc4)oc3c2)cc(OC)c1OC", "Potency": "inconclusive: 3.16 µM [inhibitor, partial curve]"},
      {"compound": "O=c1[nH]c(SCc2cccc(F)c2)nc2c1CCCC2", "Potency": "inactive"},
      {"compound": "Oc1ccccc1/C=N/Nc1cc(N2CCCC2)nc(N2CCCC2)n1", "Potency": "inconclusive: 15.8 µM [inhibitor, partial curve]"},
      {"compound": "Clc1ccc2c(c1)NC(c1ccncc1)=NC(c1cccs1)=N2", "Potency": "inconclusive: 17.8 µM [inhibitor, partial curve]"},
      {"compound": "Cc1ccc(C#N)c(=O)n1CC(=O)Nc1ccccc1C(F)(F)F", "Potency": "inactive"},
      {"compound": "CCc1cccc(C)c1Nc1c(-c2ccccc2)nc2sccn12", "Potency": "inconclusive: 31.6 µM [inhibitor, single point]"},
      {"compound": "COc1ccc(C2NC(=O)C(C#N)=C(S)N2c2cccc(C)c2)cc1OC", "note": "(configuration not stated)", "Potency": "inconclusive: 25.1 µM [inhibitor, single point]"},
      {"compound": "O=[N+]([O-])c1cccc(-c2csc(N/N=C/c3cccc(O)c3)n2)c1", "Potency": "active: 6.31 µM"},
      {"compound": "CCOc1ccc(NC(=O)Nc2cccn(Cc3ccccc3)c2=O)cc1", "Potency": "inconclusive: 12.6 µM [inhibitor, partial curve]"},
      {"compound": "CCN(CC)S(=O)(=O)c1nnc(NC(=O)COc2ccccc2F)s1", "Potency": "inconclusive: 5.62 µM [inhibitor, partial curve]"},
      {"compound": "O=c1oc(/C=C/c2ccco2)nc2sc3c(c12)CCC3", "Potency": "inconclusive: 2.82 µM [inhibitor, partial curve]"},
      {"compound": "O=C(C1COc2ccccc2O1)N1CCN(c2nc3ccc(F)cc3s2)CC1", "note": "(configuration not stated)", "Potency": "inconclusive: 12.6 µM [inhibitor, single point]"},
      {"compound": "Cc1cc(C)c(S(=O)(=O)N(C)CC(=O)N2CCCCC2)c(C)c1", "Potency": "inactive"},
      {"compound": "CSC1=NS(=O)(=O)c2c(C)nn(C)c2S1", "Potency": "active: 15.8 µM"},
      {"compound": "O=c1cc(-c2ccccc2Cl)oc2c(NS(=O)(=O)c3cc(Cl)cc(Cl)c3O)ccc(O)c12", "Potency": "active: 22.4 µM"},
      {"compound": "COc1cccc(N2CCN(c3ncnc4c3nc3n4CCCCC3)CC2)c1", "Potency": "inconclusive: 39.8 µM [inhibitor, single point]"},
      {"compound": "Cc1cc(C(=O)N/N=C/c2c(C)n(C)c3ccccc23)n[nH]1", "Potency": "inconclusive: 2.82 µM [inhibitor, partial curve]"},
      {"compound": "Cc1oc(-c2ccc(Cl)cc2)nc1CS(=O)CC(=O)N1CCN(c2cccc(C(F)(F)F)c2)CC1", "note": "(configuration not stated)", "Potency": "inconclusive: 25.1 µM [inhibitor, single point]"},
      {"compound": "C=CCn1c(SCC(=O)NC(=O)NCCC)nnc1C1CCCCC1", "Potency": "inactive"},
      {"compound": "Cc1c(O)ccc(/C(Cc2ccc3ccccc3n2)=N\\N)c1O", "Potency": "active: 7.08 µM"},
      {"compound": "CCOc1ccc(S(=O)(=O)N(C)c2ccc(OCC(=O)OCc3c(C)noc3C)cc2)cc1", "Potency": "inactive"},
      {"compound": "CCCCN(CC)C(=O)CSc1nc2n[nH]c(C)c2c(=N)n1-c1cccc(OC)c1", "Potency": "inconclusive: 44.7 µM [inhibitor, single point]"},
      {"compound": "Cc1cc(NC(=S)NC(=O)/C=C/c2ccc(S(=O)(=O)N3CCOCC3)cc2)ccc1Br", "Potency": "inconclusive: 12.6 µM [inhibitor, partial curve, poor fit]"},
      {"compound": "Brc1ccc(-c2nc3ccccn3c2Nc2ccc3c(c2)OCCO3)o1", "Potency": "inconclusive: 0.199 µM [inhibitor, partial curve]"},
      {"compound": "COc1cc(/C=N/Nc2nc(Nc3ccccc3)nc(-n3nc(C)cc3C)n2)cc(OC)c1OC", "Potency": "inconclusive: 15.8 µM [inhibitor, partial curve]"},
      {"compound": "Cn1c(=O)n(C)c2cc(C(=O)Nc3ccc4c(c3)OCO4)ccc21", "Potency": "inconclusive: 35.5 µM [inhibitor, partial curve]"},
      {"compound": "O=S(=O)(c1ccccc1)c1nnn2c1nc(NCc1ccc(F)cc1)c1sccc12", "Potency": "inconclusive: 22.4 µM [activator, partial curve]"},
      {"compound": "Cc1ccc(C)n1NC(=O)c1ccccc1[N+](=O)[O-]", "Potency": "inconclusive: 31.6 µM [inhibitor, single point]"},
      {"compound": "COc1ccccc1CNC(=O)CCn1nc(C)c2c(C)n(-c3ccccc3)nc2c1=O", "Potency": "inactive"},
      {"compound": "CNC(=O)c1c(NC(=O)c2nc3ccccc3s2)sc2c1CCC2", "Potency": "active: 7.08 µM"},
      {"compound": "COC(=O)c1cn(NC(=O)/C=C/c2cc(OC)ccc2OC)c(=O)c2ccccc12", "Potency": "inconclusive: 14.1 µM [inhibitor, partial curve]"},
      {"compound": "Cc1cc2ccccc2n1CCNC(=O)c1ccc(Br)o1", "Potency": "inconclusive: 15.8 µM [inhibitor, partial curve]"},
      {"compound": "CN(C)S(=O)(=O)c1cc(NC(=O)CN2CCN(c3ccc(O)cc3)CC2)ccc1Cl", "Potency": "inconclusive: 17.8 µM [inhibitor, single point]"},
      {"compound": "Fc1cccc(NC(=S)Nc2ccc(Br)cc2)c1", "Potency": "inconclusive: 39.8 µM [activator, single point]"}
    ]}
  ]
}
